The labels stand for the following.
B1: LINE1-full (parent)
chain: UACGUAGGUGGUUUUCCCCUGAUAGUGCUAAGGGGGCCUGGAAGUUUGGACUGGGCAGAGCUCAACACAGCGUGGCAAAGUGGCUGUGGCUAGACUGCCUCUCUGGAUUCCUCGUCACUCAGCAGGGCAUCUCUGAGAGAAAUGCC

Read counts are not given, so values of variants with three or more changes are uncertain.

The series covers variants of B1. As to the kind of experiment: self-cleavage, relative activity (ratio to wild type); higher = more cleavage; in vitro, sequencing; the parent is a self-cleaving ribozyme.
For A59U A94U U96C A141G, the self-cleavage was 0.18.

In the case of U62C G89A U130C, the self-cleavage came to 0.

U62C A69G U134C: the self-cleavage was 0.17.

For A64G A65C G93U, the self-cleavage came to 0.01.

As for A59G U62A A69U G125A, the self-cleavage is 0.02.

Turning to A59G C113A A117U, the self-cleavage worked out at 0.07.

As for A64G A107G U130G, the self-cleavage was found to be 0.38.

On to C63U U73C C98U, for which the self-cleavage stood at 0.17.

For U62A C63A A142G, the self-cleavage turned out to be 0.1.

Consider A64G A117G U130C A136G, for which the self-cleavage was 0.

Take U62C U81C U109A: the self-cleavage is 0.02.

For A64U U81C U96C A129G, the self-cleavage is 0.19.

For A64U A69G A78G U134C, the self-cleavage was 0.09.

In the case of A64G G88U U115C, the self-cleavage is 0.

C63U A67G U108C U130C: the self-cleavage turned out to be 0.37.

As for A59G A64G A65G G88A C118A, the self-cleavage came to 0.05.

For the variant C61G A69U C145U, the self-cleavage was determined as 0.03.

Turning to A59G A67U U115C, the self-cleavage was 0.

In the case of U62A U87A U104C, the self-cleavage amounted to 0.02.

On to U62C U104A C116A, for which the self-cleavage was determined as 0.03.

For the variant A59G A65G U96A A138G, the self-cleavage was determined as 0.

As to A65G A138G A141G, the self-cleavage turned out to be 0.

Regarding A64G A117C A142G, the self-cleavage came to 0.46.

As to U62C U73A U96A, the self-cleavage was found to be 0.11.

In the case of A64G U132G A141G A142G, the self-cleavage came out at 0.23.

As for U62C U112C A121C, the self-cleavage came to 0.

With A64G U85A G89A A117G, the self-cleavage was found to be 0.06.

For the variant C63A A117C A124U, the self-cleavage amounted to 0.11.

Turning to U62C U73C A136G, the self-cleavage came out at 0.

Turning to U62C A69G U73A A121G U130C, the self-cleavage was 0.

Regarding U62C A107G U112C, the self-cleavage is 0.19.

Turning to C61U U115A A124U A136G, the self-cleavage stood at 0.05.

For U62A U102C A107G, the self-cleavage is 0.

As for U62C A69U U81C, the self-cleavage came to 0.04.

Take U62G G72A A141G: the self-cleavage amounted to 0.05.

As for U62A U102C G127A, the self-cleavage was 0.05.

Take G60A A77U U87C A94G U108C: the self-cleavage was determined as 0.11.

Take U62A U130A A140G: the self-cleavage came out at 0.

Turning to U62C C84U U96A A141G, the self-cleavage was found to be 0.02.

As for A64U A69U A77G A79G, the self-cleavage is 0.

Take C63U A79G U143A: the self-cleavage was 0.26.

With A64G A92G A142G, the self-cleavage came out at 0.

For C63U U73A U119C A140G, the self-cleavage was determined as 0.31.

In the case of A64G G86A C99G U109A, the self-cleavage stood at 0.02.

In the case of A64U A77U A79G U81C, the self-cleavage was 0.12.

C61U U104C U112C C145U: the self-cleavage is 0.01.

Consider U62C A92G C98U, for which the self-cleavage was determined as 0.06.

Turning to A59G A69U U112C, the self-cleavage stood at 0.08.

As to A65G A77U A138U, the self-cleavage was determined as 0.17.

For A64G A129G G137A, the self-cleavage came to 0.26.

With A64C A141G U143A, the self-cleavage was 0.09.

U62A U102C U104A: the self-cleavage was 0.

Turning to A59U A64U A138G, the self-cleavage came to 0.45.

For A59U C76U U102C, the self-cleavage came to 1.09.

In the case of A59U A67G U115C, the self-cleavage turned out to be 0.

For the variant U62C U115C G127U, the self-cleavage turned out to be 0.06.

Take A59G C99A U132C: the self-cleavage was 0.03.

Consider A59G G70A U109C U143C, for which the self-cleavage amounted to 0.01.

For the variant A64U U73A A77U U132A, the self-cleavage is 0.27.

Take A59G C101U A129G: the self-cleavage came out at 0.02.

For the variant A65C U102C U119A, the self-cleavage was found to be 0.06.

Regarding U62A U112A A142G, the self-cleavage turned out to be 0.09.

For the variant A65G A79U A107G, the self-cleavage stood at 0.

Consider A65G A124G U132C, for which the self-cleavage was 0.03.

A64G A65U G74A A77G A121G: the self-cleavage came out at 0.

Take A59U C133U A136G: the self-cleavage was 0.83.

As to G60U G83U U91C, the self-cleavage amounted to 0.06.

Take A64G A67G A141G: the self-cleavage was 0.

For the variant U62C U115A U130C, the self-cleavage was 0.04.

For the variant A64C U73A A141G, the self-cleavage turned out to be 0.33.

A59G A121C U132A: the self-cleavage is 0.

As to A64U A107G A129G U132C, the self-cleavage came to 0.85.

Regarding A65G A94U U112C, the self-cleavage turned out to be 0.

For the variant A64U U112C C113A, the self-cleavage was 0.09.

Take A64G A94U U115C: the self-cleavage amounted to 0.

As to A64U U115C A140G A142G, the self-cleavage was 0.68.

U62C U73A U100A A141G: the self-cleavage was 0.02.

A59U U115C U134C: the self-cleavage stood at 0.73.

On to U62C C111U U119C, for which the self-cleavage came out at 0.07.

For U62C U100A A117G, the self-cleavage stood at 0.

For G60U U81A A136G, the self-cleavage is 0.03.

For G60A U87C A136G A140G, the self-cleavage worked out at 0.08.

On to A64G A124U U134C, for which the self-cleavage stood at 0.31.

Consider A64G G114A A121G, for which the self-cleavage amounted to 0.27.

As for G60A G86A U109C, the self-cleavage was 0.03.

As to A59G U81C A138G, the self-cleavage was 0.

Turning to A64U U134C A142G, the self-cleavage was found to be 0.79.

For the variant A59G U96A U112C A124G, the self-cleavage stood at 0.

Consider A59U A69G G114A A117G, for which the self-cleavage came out at 0.15.

In the case of A59U C84G C101U, the self-cleavage came out at 0.09.

Turning to U62A U73A A129G, the self-cleavage worked out at 0.04.

Consider A64G U104C A141G, for which the self-cleavage is 0.45.

With A59U U130C C146U, the self-cleavage came to 0.91.

Take A65G C103U U130C: the self-cleavage came out at 0.04.

With A65G A94U U108A, the self-cleavage was 0.04.

Consider U62C G89C U112C, for which the self-cleavage is 0.01.

In the case of U62C A121G A141G, the self-cleavage is 0.05.

A64U A129G U132C: the self-cleavage stood at 0.69.

On to A64U A92G A138G, for which the self-cleavage stood at 0.18.

For the variant U62A A117C A129G, the self-cleavage was determined as 0.

With C63U C71U A78G, the self-cleavage was 0.07.

As for A65G A129G A142G, the self-cleavage is 0.

With A64G U100C C111U A136G, the self-cleavage amounted to 0.32.

Regarding U62C A65G U132G, the self-cleavage came to 0.

For the variant U62C C103G G125C, the self-cleavage is 0.06.

Regarding A59G A65G G80A U100C, the self-cleavage worked out at 0.04.

A64U A69G A79G: the self-cleavage was 0.05.

Take A64U C68U U102C A117G U134A: the self-cleavage is 0.09.

For A59G U85C G105U C113U, the self-cleavage amounted to 0.01.

In the case of A64U A94G C113A, the self-cleavage was found to be 0.07.

As to U62A A79G U96A U132A, the self-cleavage was 0.04.

For A59G U73C A141G, the self-cleavage was determined as 0.

Consider A64G A69G A77G, for which the self-cleavage came to 0.77.

Consider C61U A94G U96A U134A A136G, for which the self-cleavage is 0.01.

Turning to A59G A77U U85C A121U, the self-cleavage came out at 0.

Turning to U62A A67G G86A, the self-cleavage was 0.05.

As to A59G A67U U102C U143A, the self-cleavage came out at 0.09.

On to A65G C71U A107G A142G, for which the self-cleavage was determined as 0.01.

For A65G A77G U112C, the self-cleavage was determined as 0.06.

With U62C U100A U102A, the self-cleavage was 0.03.

For U62C C63A U73C C145G, the self-cleavage is 0.07.

For the variant A59G A64G C101A U134A, the self-cleavage came to 0.02.

In the case of C61A A69G A79G U130C, the self-cleavage came to 0.

Regarding C63A A140G A141G, the self-cleavage is 0.03.

Regarding A59G A64G U73C G83U U112C C146U, the self-cleavage amounted to 0.1.

Consider U62C A77U G126C U134C, for which the self-cleavage came out at 0.1.

As for A59U A79G U100C, the self-cleavage turned out to be 1.35.

On to A59G U73A A107U, for which the self-cleavage is 0.07.

In the case of U62A U104A A117G, the self-cleavage came to 0.07.

With U62C U130C U132A, the self-cleavage came to 0.05.

For U62C A94G A107U, the self-cleavage was determined as 0.

For C61A U62C U85C U87C G106U U115A A138G, the self-cleavage amounted to 0.02.

For the variant A65G A77U U109C A117G A129U A138G A140G, the self-cleavage is 0.

Turning to U62C U85A A94G, the self-cleavage came out at 0.

In the case of A59G A79G A141G, the self-cleavage came out at 0.25.

Take A59U A77U U132C: the self-cleavage was 0.

In the case of A64G U73A C131U, the self-cleavage was 0.25.

Turning to A64U A142G U143C, the self-cleavage was determined as 0.6.

On to A59G A92G U143C, for which the self-cleavage was determined as 0.15.

Turning to A65G C90U A142G, the self-cleavage is 0.

Take A59U A79G U143A: the self-cleavage is 0.77.

For the variant A64U A69G U115A, the self-cleavage was 0.29.

For A65G A69U A77C, the self-cleavage amounted to 0.05.

With U62C U73C C123U, the self-cleavage stood at 0.05.

With A59G A77G A117U, the self-cleavage stood at 0.35.

In the case of A59U A69U U85C G144A, the self-cleavage was 0.04.

Consider A65G C120U A121G, for which the self-cleavage was 0.

As to A64G C103U A124G, the self-cleavage came to 0.3.

Consider U62C A69U U119A A136U, for which the self-cleavage came out at 0.07.

In the case of U62A A79G U91C G97A, the self-cleavage worked out at 0.06.

Take A59G C66U U81C C116U U143G: the self-cleavage was 0.03.

For the variant A64U A77U U100C U132A A140G A142U, the self-cleavage worked out at 0.62.

On to U62G U96C A129G, for which the self-cleavage was 0.

Regarding A59C U108C U112A, the self-cleavage turned out to be 1.25.

For A59U A79G U96A A124U, the self-cleavage came to 0.08.

Turning to U62C A124U A142G, the self-cleavage came out at 0.1.

For the variant A59G A78G G82A G97A U119C G122U, the self-cleavage amounted to 0.03.

As for C61A U100A U119C, the self-cleavage is 0.05.

With A64G A79G G127A, the self-cleavage was 0.21.

On to A64G U115A A136G, for which the self-cleavage was found to be 0.2.

With G58U U81A A121G A136G, the self-cleavage came to 0.05.

With A64G G74A U112C, the self-cleavage amounted to 0.15.

For the variant C63A U102C A129G, the self-cleavage is 0.06.

As to A64G A67U U143A, the self-cleavage came to 0.05.

For the variant C61U A64G A117U, the self-cleavage stood at 0.02.

For the variant U62C A77G A121G, the self-cleavage stood at 0.13.

As for U62C U87G U109C, the self-cleavage came out at 0.

Source of the values: the RNAGym collection of RNA variant scans (doi:10.7554/elife.90254).
